Values joined by “and” are separate entries in the source; they are usually repeats but may differ in a detail not shown here. Identical values can stand only once. In all, about 270,000 compounds went through this assay and about 5,800 (2.1%) were called active. Inconclusive means that the source gave no clear call. Such entries were picked first, then a sample of the others. The call rests on the fitted dose curve; in most records, active means well fitted inhibition curve with a large enough effect; inconclusive means small, poorly fitted or top-dose-only effect; inactive means flat fitted curve, though single readings scatter. Where the call is inconclusive, the potency comes from a doubtful curve fit.
molecular target: Microtubule-associated protein tau (Homo sapiens) (UniProt P10636); test: qHTS for Inhibitors of Tau Fibril Formation, Thioflavin T Binding; conditions: recombinant tau K18 P301L (four-repeat tau fragment), heparin-induced fibrillization, ThT fluorescence; series mostly up to 57.4 µM; further: nearly all actives have a fitted effect of over 55% in size
UniProt P10636, sequence (P10636 whole entry, looked up, the tested form may be a part): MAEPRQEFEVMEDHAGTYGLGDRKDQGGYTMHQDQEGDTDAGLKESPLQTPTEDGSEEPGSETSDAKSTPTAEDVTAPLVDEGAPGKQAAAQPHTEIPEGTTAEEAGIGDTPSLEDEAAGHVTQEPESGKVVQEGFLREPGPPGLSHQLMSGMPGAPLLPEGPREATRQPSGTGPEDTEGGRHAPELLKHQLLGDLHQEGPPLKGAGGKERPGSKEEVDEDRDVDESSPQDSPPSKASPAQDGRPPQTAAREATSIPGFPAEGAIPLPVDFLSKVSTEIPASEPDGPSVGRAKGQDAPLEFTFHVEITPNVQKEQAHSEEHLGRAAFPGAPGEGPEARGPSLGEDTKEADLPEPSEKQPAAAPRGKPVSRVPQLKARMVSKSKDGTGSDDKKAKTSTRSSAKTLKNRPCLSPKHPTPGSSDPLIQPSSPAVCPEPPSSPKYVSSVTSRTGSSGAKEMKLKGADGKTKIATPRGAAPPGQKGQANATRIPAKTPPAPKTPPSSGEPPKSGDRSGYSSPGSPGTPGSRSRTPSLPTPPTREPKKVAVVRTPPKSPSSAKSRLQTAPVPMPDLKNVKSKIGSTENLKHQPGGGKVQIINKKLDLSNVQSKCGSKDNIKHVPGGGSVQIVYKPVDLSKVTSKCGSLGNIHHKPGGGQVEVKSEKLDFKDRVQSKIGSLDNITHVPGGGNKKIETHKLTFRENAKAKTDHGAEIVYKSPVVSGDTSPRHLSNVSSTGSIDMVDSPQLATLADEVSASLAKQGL
In short: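 Recombinant human tau K18 fragment […] carrying P301L, 15 uM unlabeled plus 0.24 uM Alexa 594-labeled, was fibrillized with 20 uM heparin in 100 mM sodium acetate pH 7 for 6 hr at 37 C; 30 uM ThT fluorescence read after 1 hr.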
On the % scale 0 is the no-effect control and ±100 the full control effect; potency means the concentration at half of the fitted maximal effect; tags describe the fitted curve by direction and shape.

Structure (SMILES) | Potency | activity, negative = inhibition
COc1ccc(C2C(C(=O)c3ccc(C)o3)=C(O)C(=O)N2c2cc(C)on2)cc1OC (stereo not drawn) | inactive | –
CS/C(=C\[N+](=O)[O-])Nc1ccc(F)cc1 | inconclusive: 25.1 µM [inhibitor, partial curve, poor fit] | –
CCCCOc1ccc(-c2nc(/C=N/c3nccs3)c(O)o2)cc1 | inconclusive: 10 µM [inhibitor, partial curve, poor fit] | –
CCc1ccccc1NC(=O)N1CCCn2nc(C)cc21 | inactive | –
O=S(=O)(c1ccc2c(c1)OCCO2)N1CCC(O)(c2ccc(Cl)cc2)CC1 | inactive | –
O=C(O)c1ccccc1-n1ncc2c1/C(=C/c1ccc(Cl)cc1)CC2 | inconclusive: 31.6 µM [inhibitor, partial curve, poor fit] | –
COc1cccc([C@@H]2Oc3ccc(OC)cc3C(=O)[C@H]2OC(=O)NCc2ccc3c(c2)OCO3)c1 | inconclusive: 25.1 µM [inhibitor, partial curve] | –
O=C(NCc1noc2ccccc12)N1CCN(c2ccccc2)CC1 | inactive | –
CCOc1ccccc1NC(=O)CC1Nc2cc(C)c(C)cc2NC1=O (stereo not drawn) | inconclusive: 15.8 µM [inhibitor, single point] | –
COc1ccc(Nc2oc(COc3ccccc3F)nc2C#N)cc1 | inconclusive: 25.1 µM [inhibitor, partial curve, poor fit] | –
O=C(Cn1c(=O)n(-c2ccccc2)c(=O)c2c3c(sc21)CCCC3)Nc1ccc(F)cc1F | inactive | –
O=C(O)CCc1ccc(-c2ccccc2)n1Cc1ccco1 | inconclusive: 28.2 µM [inhibitor, partial curve] | –
N#Cc1nc(-c2ccc(COc3ccc(Cl)cc3)o2)oc1N1CCC(C(N)=O)CC1 | inactive | –
O=C(Nc1cccc(C(F)(F)F)c1)c1cccnc1N1CCN(c2ccccc2)CC1 | inactive | –
COc1ccc(OC)c(C2=NS(=O)(=O)N(C)C(C(=O)Nc3ccc(F)cc3F)=C2)c1 | inactive | –
CN(NC1CC(=O)N(c2ccccc2)C1=O)c1ccccc1 (stereo not drawn) | inconclusive: 22.4 µM [inhibitor, single point] | –
CC1=CC(C)(C)NC(=S)N1c1cc(C)cc(C)c1 | inactive | –
COc1ccc(N2CCN(C(=O)C3CCCN(S(=O)(=O)c4cccc5cccnc45)C3)CC2)cc1 (stereo not drawn) | inconclusive: 28.2 µM [inhibitor, partial curve, poor fit] | –
O=C(NCc1ccco1)c1ccc(N2CCCCC2)c([N+](=O)[O-])c1 | inconclusive: 22.4 µM [inhibitor, partial curve] | –
Cc1c(NC(=O)CN2C(=O)C3C4C=CC(C4)C3C2=O)c(=O)n(-c2ccccc2)n1C (stereo not drawn) | inconclusive: 31.6 µM [inhibitor, single point] | –
Cn1c(CN2CCCC2)nc2cc(NC(=O)c3cccs3)ccc21 | inactive | –
CCC(Cc1ccccc1)NC(=O)CSc1ccsc1[N+](=O)[O-] (stereo not drawn) | inconclusive: 0.0708 µM [inhibitor, full curve, poor fit] | –

Structure (SMILES) | Potency | activity, negative = inhibition
COC(=O)C1=C(C(=O)OC)[C@@H]2N(C)c3ccc(OC)cc3[C@@]23C[C@@H](C(=O)OC)N(S(=O)(=O)c2ccc(Br)cc2)C3=N1 | – | inactive: -2.29% [at 11.5 µM]
CCc1cc(=O)oc2cc(OCC(=O)N3CCCc4ccccc43)ccc12 | inconclusive: 14.1 µM [inhibitor, partial curve] | –
O=C(Cn1c(=O)n(Cc2ccccc2)c(=O)c2sc3ccccc3c21)Nc1ccccc1 | inconclusive: 22.4 µM [activator, partial curve, poor fit] | –
CCOc1ccc(-c2cc3nc(C4CCN(C(=O)OC(C)(C)C)CC4)c(C(=O)Nc4cc(OC)ccc4OC)cn3n2)cc1 | inconclusive: 22.4 µM [inhibitor, partial curve, poor fit] | –
CCN1CCOC(=O)C1CC(=O)Nc1ccc(Br)cc1 (stereo not drawn) | inconclusive: 8.91 µM [inhibitor, partial curve] | –
CCOc1ccc(C(=O)/C=C/c2cn(CN3CCN(C)CC3)c3ccccc23)cc1 | inconclusive: 12.6 µM [inhibitor, partial curve] | –
Cc1nn(C)c2c1c(-c1ccccc1)cc(=O)n2CC(=O)NC(C)c1ccccc1 (stereo not drawn) | inconclusive: 39.8 µM [inhibitor, single point] | –
CNC(=S)Nc1ccc([N+](=O)[O-])cc1 | inactive | –
COc1ccc2c(C)cc(Sc3nnnn3-c3ccccc3)nc2c1 | inactive | –
COC(=O)c1sc(NC(=O)CSc2nncs2)c(C(=O)OC)c1C | inactive | –
Cc1ccc(-n2nc(-c3ccco3)cc2C(=O)O)cc1 | inactive | –
Oc1ccc2ccccc2c1N=Nc1ccc(F)cc1 | inconclusive: 8.91 µM [inhibitor, partial curve] and inconclusive: 5.01 µM [inhibitor, partial curve] | –
CN1CCN(Cc2c(O)ccc3cc(Br)ccc23)CC1 | inconclusive: 11.2 µM [inhibitor, partial curve] | –
O=C(COc1ccccc1)N1CCN(c2ccc([N+](=O)[O-])c(N3CCCCC3)c2)CC1 | inconclusive: 15.8 µM [inhibitor, partial curve] | –
CCOC(=O)c1ccc(NC(=O)CSc2nc3ccccc3c(=O)n2CCC(=O)NC2CCCCC2)cc1 | inactive | –
COC(=O)c1cccc(N2C(=O)C(Cl)=C(N3CCOCC3)C2=O)c1 | active: 14.1 µM | –
CCc1cccc(CC)c1N1C(=O)c2cc(N3CCOCC3)c([N+](=O)[O-])cc2C1=O | inconclusive: 15.8 µM [inhibitor, single point] | –
COc1ccc(C(=O)C2C(c3ccc(-c4ccccc4[N+](=O)[O-])o3)NC(=O)NC2(O)C(F)(F)F)cc1 (stereo not drawn) | inconclusive: 31.6 µM [inhibitor, single point] | –
CC1CN(C2=CC(=O)CCC2)CC(C)O1 (stereo not drawn) | inconclusive: 20 µM [inhibitor, partial curve] | –
Cc1cc(C)c2c(=O)cc(C(=O)Nc3sc4c(c3C(=O)NCC3CCCO3)CCCC4)oc2c1 (stereo not drawn) | inconclusive: 17.8 µM [inhibitor, single point] | –
CN(C)CCCOc1ccc(Cl)cc1Br | inactive | –

Reference: PubChem BioAssay AID1460 (National Center for Advancing Translational Sciences (NCATS), 2008)
